The target of the assay is BoNT/B2 (Clostridium botulinum). In words: flow cytometry, yeast-displayed scFv, soluble toxin.

B1: B6.1 scFv (scFv)
scFv: QVQLVQSGAEVKKPGESLVISCKASGDKDTFTSFWIAWVRQMPGKGLEWMGIIYAGDSDTRYSPSFQGHVNISVDRSTNTAYLQWSSLKASDTAMYYCARHDSRYKYFYFGMDVWGQGTTVTVSSGGGGSGGGGSGGGGS[gap - about 100 residues]PYTFGQGTKLEIK
Take B1: the dissociation constant (Kd) (as a rule, the equilibrium constant for the complex coming apart) stood at 0.394 nM.

(Values after patent publication US20150197559A1.)
